Lines with a small IC50 respond at low doses; a fit beyond the top or the lowest dose is shown as a bound at that dose. AUC, from the same fit, is the share of area under the viability curve across the 256-fold dose range; it is 1 without any effect and falls as sensitivity rises. For some assays here: A top dose marked as inferred is not printed in the source and was worked back from the curve model.
Key:
Test in all cases: Viability of human cancer cell lines after 72 h of drug (GDSC screen)
XL-184 = compound: COc1cc2nccc(Oc3ccc(NC(=O)C4(C(=O)Nc5ccc(F)cc5)CC4)cc3)c2cc1OC [XL-184]; details: top dose 5.12 µM; top dose inferred
Description: (§1)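 Human cancer cell lines in 384-well plates, medium with 10% serum, drug for 72 h over a 256-fold dose range (nine 2-fold or five 4-fold steps up to the top dose). Adherent lines were fixed and stained with the nucleic acid dye Syto60, suspension lines read with resazurin; signal relative to control wells, capped at 0 and 100%. One two-parameter sigmoid per drug and line, fitted in a mixed model over all curves with the slope shared within a line.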

WHI-P97 = compound: COc1cc2ncnc(Nc3cc(Br)c(O)c(Br)c3)c2cc1OC [WHI-P97]; details: top dose 10.24 µM; top dose inferred
Description: as §1

AG-014699 = compound: CNCc1ccc(-c2[nH]c3cc(F)cc4c3c2CCNC4=O)cc1 [AG-014699]; details: top dose 5 µM; top dose inferred
Description: as §1

Phenformin = compound: N=C(N)NC(=N)NCCc1ccccc1 [Phenformin]; details: top dose 4000 µM; top dose inferred
Description: as §1

QL-XI-92 = compound: C=CC(=O)Nc1cc(NC(=O)c2ccc(C)c(NC(=O)c3ccno3)c2)cc(C(F)(F)F)c1 [QL-XI-92]; details: top dose 10.24 µM; top dose inferred
Description: as §1

NU-7441 = compound: O=c1cc(N2CCOCC2)oc2c(-c3cccc4c3sc3ccccc34)cccc12 [NU-7441]; details: top dose 2 µM; top dose inferred
Description: as §1

EHT 1864 = compound: O=c1cc(CN2CCOCC2)occ1OCCCCCSc1ccnc2cc(C(F)(F)F)ccc12 [EHT 1864]; details: top dose 10 µM; top dose inferred
Description: as §1

Gefitinib = compound: COc1cc2ncnc(Nc3ccc(F)c(Cl)c3)c2cc1OCCCN1CCOCC1 [Gefitinib]; details: top dose 0.5 µM
Description: as §1

Vinorelbine = compound: CCC1=C[C@@H]2CN(C1)Cc1c([nH]c3ccccc13)[C@@](C(=O)OC)(c1cc3c(cc1OC)N(C)[C@H]1[C@@](O)(C(=O)OC)[C@H](OC(C)=O)[C@]4(CC)C=CCN5CC[C@]31[C@@H]54)C2 [Vinorelbine]; details: top dose 0.064 µM; top dose inferred
Description: as §1

Cell Line | AUC (XL-184) | IC50 (XL-184) [µM] | AUC (WHI-P97) | IC50 (WHI-P97) [µM] | AUC (AG-014699) | IC50 (AG-014699) [µM] | AUC (Phenformin) | IC50 (Phenformin) [µM] | AUC (QL-XI-92) | IC50 (QL-XI-92) [µM] | AUC (NU-7441) | IC50 (NU-7441) [µM] | AUC (EHT 1864) | IC50 (EHT 1864) [µM] | AUC (Gefitinib) | IC50 (Gefitinib) [µM] | AUC (Vinorelbine) | IC50 (Vinorelbine) [µM]
CAL-120 (breast, adherent) | 0.904 | > 5.12 | 0.912 | > 10.2 | 0.953 | > 5 | 0.823 | 3320 | 0.963 | > 10.2 | 0.974 | > 2 | 0.933 | > 10 | 0.953 | > 0.5 | 0.774 | 0.0326
CCF-STTG1 (glioma, adherent) | 0.862 | 4.44 | 0.983 | > 10.2 | 0.987 | > 5 | 0.794 | 1850 | 0.951 | > 10.2 | 0.978 | > 2 | 0.954 | > 10 | 0.988 | > 0.5 | 0.616 | –
CCK-81 (large intestine, adherent) | 0.981 | > 5.12 | 0.852 | 7.22 | 0.968 | > 5 | 0.377 | 117 | 0.97 | > 10.2 | 0.988 | > 2 | 0.901 | > 10 | 0.89 | > 0.5 | 0.919 | > 0.064
CCRF-CEM (lymphoblastic leukaemia, suspension) | 0.91 | > 5.12 | 0.946 | > 10.2 | 0.949 | > 5 | 0.521 | 282 | 0.878 | 7.59 | 0.924 | > 2 | 0.964 | > 10 | 0.978 | > 0.5 | 0.526 | 0.00464
CHL-1 (melanoma, adherent) | 0.857 | 3.79 | 0.677 | 1.93 | 0.986 | > 5 | 0.859 | 3030 | 0.892 | > 10.2 | 0.812 | 0.997 | 0.946 | > 10 | 0.765 | 0.173 | 0.51 | 0.00424
CHP-212 (neuroblastoma, adherent) | 0.985 | > 5.12 | 0.988 | > 10.2 | 0.933 | > 5 | 0.617 | 509 | 0.892 | > 10.2 | 0.924 | > 2 | 0.928 | > 10 | 0.985 | > 0.5 | 0.777 | 0.0237
CHSA0108 (chondrosarcoma, adherent) | 0.81 | 3.23 | 0.793 | 5.53 | 0.967 | > 5 | 0.177 | 21.8 | 0.978 | > 10.2 | 0.95 | > 2 | 0.982 | > 10 | 0.977 | > 0.5 | 0.71 | 0.0174
CHSA8926 (chondrosarcoma, adherent) | 0.858 | > 5.12 | 0.937 | > 10.2 | 0.98 | > 5 | 0.936 | > 4000 | 0.978 | > 10.2 | 0.971 | > 2 | 0.98 | > 10 | 0.98 | > 0.5 | 0.795 | 0.0448
COLO-678 (large intestine, semi-adherent) | 0.984 | > 5.12 | 0.985 | > 10.2 | 0.981 | > 5 | 0.966 | > 4000 | 0.982 | > 10.2 | 0.981 | > 2 | 0.962 | > 10 | 0.913 | > 0.5 | 0.914 | > 0.064
COLO-679 (melanoma, adherent) | 0.985 | > 5.12 | 0.976 | > 10.2 | 0.985 | > 5 | 0.771 | 1720 | 0.955 | > 10.2 | 0.943 | > 2 | 0.885 | > 10 | 0.984 | > 0.5 | 0.415 | 0.00227
COLO-680N (oesophagus, adherent) | 0.985 | > 5.12 | 0.983 | > 10.2 | 0.972 | > 5 | 0.986 | > 4000 | 0.948 | > 10.2 | 0.974 | > 2 | 0.968 | > 10 | 0.967 | > 0.5 | 0.757 | 0.0259
COR-L23 (large cell lung carcinoma, adherent) | 0.959 | > 5.12 | 0.96 | > 10.2 | 0.927 | > 5 | 0.814 | 2110 | 0.934 | > 10.2 | 0.982 | > 2 | 0.973 | > 10 | 0.983 | > 0.5 | 0.621 | 0.00853
CP50-MEL-B (melanoma, adherent) | 0.89 | > 5.12 | 0.965 | > 10.2 | 0.988 | > 5 | 0.719 | 1030 | 0.988 | > 10.2 | 0.95 | > 2 | 0.956 | > 10 | 0.986 | > 0.5 | 0.824 | 0.0374
CS1 (bone, adherent) | 0.843 | 4.25 | 0.963 | > 10.2 | 0.945 | > 5 | 0.805 | 2300 | 0.838 | 8.08 | 0.973 | > 2 | 0.955 | > 10 | 0.984 | > 0.5 | 0.779 | 0.0294
Ca9-22 (head and neck, adherent) | 0.958 | > 5.12 | 0.805 | 4.73 | 0.954 | > 5 | 0.858 | 2900 | 0.977 | > 10.2 | 0.963 | > 2 | 0.95 | > 10 | 0.884 | 0.47 | 0.569 | 0.00609

— the supplement of paper PMC4967469
